# According to PubChem BioAssay AID1671189 (National Center for Advancing Translational Sciences (NCATS), 2021):
# Among all 1,100 compounds or so, about 70 (6%) were called active. Not shown: some 22% with an inconclusive outcome. The call rests on the fitted dose curve; in most records, active means well fitted curve in the direction sought with a large enough effect; inconclusive means small, poorly fitted or top-dose-only effect, or another doubt; inactive means no such curve, though single readings can be large or run the other way. This is one part of the list.
# Target: Polyunsaturated fatty acid lipoxygenase ALOX12 (Homo sapiens) (UniProt P18054)
# Experiment: Confirmatory qHTS assay for inhibitors of human arachidonate 12S-lipoxygenase (ALOX12): Round 2
# Conditions: purified human 12-LOX, xylenol orange absorbance; series mostly up to 125 µM; activity change, negative = inhibition: at the top concentration
# From the text: Assay Provider: Theodore R. Holman Ph.D. University of California, Santa Cruz, California Human lipoxygenase 12hLO is a member of the closely related lipoxygenase family of enzymes which catalyze the site-specific oxidation of arachidonic acid to various hormone precursor molecules and as such is a candidate for drug development in a variety of disease areas, such as cancer and inflammation. Inhibition of 12hLO activity was screened by utilizing arachidonic acid as a substrate. The extent of hydroperoxide product formation was measured by a secondary chromogenic reaction in which xylenol orange (XO, Sigma-Aldrich, cat. number 39,818-7) reacts with the ferric ions produced from the reaction between the hydroperoxide and ferrous ions. The Fe (III)-XO complex is characterized with red-shifted absorbance at 560 nm. A purified preparation of human 12hLO was supplied by Dr. Holman laboratory, University of California, Santa Cruz.
# PROTOCOL TABLE SEQUENCE No. (e.g., 1, 2, 3, etc.); […] (e.g., Cells, Incubation, Reagent, etc.); VALUE; DESCRIPTION 1; Enzyme; 3 uL; 150 nM 12hLO enzyme solution dispensed in 1536-well Greiner black, clear bottom plates. 2; Compound; 23 nL; compounds and controls were added. 3; Incubate; 15 min; room temperature. 4; Substrate; 1 uL; 40 uM arachidonic acid (final concentration). 5; Incubate; 30 min; room temperature. 6; Reagent; 4 uL; Fe-XO solution was added to each well. 7; Incubation; 30 min; room temperature 8; Detector; absorbance; Read 1 at 405 nm absorbance using ViewLux (PerkinElmer) CCD imager. 9; Detector; absorbance; Read 2 at 573 nm absorbance using ViewLux (PerkinElmer) CCD imager. NOTES (numbers refer to sequence above) 1; 150 nM 12hLO (final concentration) in buffer solution (25 mM Hepes, 0.01% Triton X-100, pH 7.0) was dispensed in columns 1, 2, 5-48. Column 1 is neutral (100% activity). Buffer only was dispensed in columns 3 and 4 as no enzyme negative controls. The plates were covered with metal lids with gas-exchange holes. 2; Compounds were pin transferred via a Kalypsys Pin Tool (Wako USA) in column 5 - 48. Control compound was transferred in column 2, titration of nordihydroguaiaretic acid (NDGA, Sigma-Aldrich, N5023) with top concentration of 20 mM in DMSO then 1:3 dilution in duplicate. Dilution factor of 23 nL into 4 uL final assay volume. 3; Covered assay plates were incubated for 15 min at room temperature. 4; Substrate was added to start the reaction; 40 uM arachidonic acid (Sigma-Aldrich, St. Louis, MO) was dispensed throughout the plate. 6; Chromogenic detection reagent solution (divalent iron/xylenol orange, Fe-XO) was added to each well: 200 uM xylenol orange, 300 uM ferrous ammonium sulfate prepared freshly in 50 mM sulfuric acid. 8, 9; Two absorbance readouts were obtained at 405 nm and at 573 nm using a ViewLux high-throughput CCD plate imager (PerkinElmer). The 573 to 405 (Read 2 / Read 1) absorbance ratio was used to compute reaction progress.
# On the % scale 0 is the no-effect control and ±100 the full control effect; potency means the concentration at half of the fitted maximal effect.
# Chain of UniProt P18054 (P18054 whole entry, looked up): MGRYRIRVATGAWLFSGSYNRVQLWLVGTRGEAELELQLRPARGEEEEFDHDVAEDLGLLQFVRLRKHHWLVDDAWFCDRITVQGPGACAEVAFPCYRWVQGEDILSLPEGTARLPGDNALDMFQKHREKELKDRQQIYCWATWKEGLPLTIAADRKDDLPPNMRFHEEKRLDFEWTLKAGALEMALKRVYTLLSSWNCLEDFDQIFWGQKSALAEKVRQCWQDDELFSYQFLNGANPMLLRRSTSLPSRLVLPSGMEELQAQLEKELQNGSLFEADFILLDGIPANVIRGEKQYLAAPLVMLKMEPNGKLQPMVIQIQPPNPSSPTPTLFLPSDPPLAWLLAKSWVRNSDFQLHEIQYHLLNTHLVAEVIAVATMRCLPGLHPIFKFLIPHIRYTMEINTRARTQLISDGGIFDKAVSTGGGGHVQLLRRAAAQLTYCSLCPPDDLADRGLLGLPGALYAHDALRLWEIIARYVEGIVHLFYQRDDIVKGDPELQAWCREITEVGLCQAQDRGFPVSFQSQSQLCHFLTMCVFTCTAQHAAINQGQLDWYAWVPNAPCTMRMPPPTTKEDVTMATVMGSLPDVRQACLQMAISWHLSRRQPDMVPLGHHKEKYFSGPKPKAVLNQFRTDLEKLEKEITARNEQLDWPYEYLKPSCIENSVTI
Structure (SMILES),"activity change, negative = inhibition",Potency
CN1CC(=O)N(C2CCCNCC2)Cc2c(NCc3cccs3)ncnc21 (centres undefined),inactive: -21.3%,
CNc1oc(-c2ccc3cnccc3c2)nc1C#N,inactive: 6.11% [at 64.5 µM],
CNCc1ccccc1C(F)(F)F,inactive: -15% [at 233 µM],
O=C(NCc1ccco1)[C@@H]1Cc2nc[nH]c2CN1Cc1cccnc1,inactive: 10.4%,
Cc1cc(C)c(CN2CCC3(Cc4ccccc4CNC3=O)C2)c(C)c1 (centres undefined),,active: 0.879 µM
CN1CCC(NC[C@H]2O[C@@H](CO)[C@@H](O)[C@@H]2N(C)Cc2ccccc2)CC1,inactive: 28.6% [at 64.5 µM],
Cc1cc(C)c(S(=O)(=O)c2nnn3c2nc(NCCCOC(C)C)c2ccccc23)c(C)c1,inactive: -13.7%,
N#Cc1ccc(CN2CCC3(CN[S+](=O)([O-])c4cnccc4O3)C2)cc1 (centres undefined),inactive: -2.99%,
CC(=O)NC1(C)CCN(Cc2cnc(-c3ccccc3OCc3ccccc3)s2)CC1,,active: 4.47 µM
CN1CC(=O)N(C2CCCNC2)Cc2c(NC3CCCCC3O)ncnc21 (centres undefined),inactive: -20.5%,
CC(C)C[C@H](NC(=O)[C@@H]1C[C@H](NC(=O)c2cccn2C)CN1C(=O)c1cccn1C)C(N)=O,inactive: -7.58% [at 64.5 µM],
O=C(O)c1cccc(-c2ccsc2)c1,inactive: -9.95% [at 233 µM],
CNc1oc(C2CCCC2)nc1C#N,inactive: 18.7% [at 64.5 µM],
COc1ccc(NC(=O)Nc2cccc(-c3ccc(N4CCOCC4)nn3)c2)cc1,inactive: -6.02% [at 64.5 µM],
CN1CCC(C(=O)N2Cc3ccccc3CC3(CCCN(CC4CCNC4)C3)C2)CC1 (centres undefined),inactive: -23%,
O=C(O)CCCC(=O)N1Cc2ccccc2CC2(CCCN2Cc2ccccc2)C1 (centres undefined),inactive: -17.9%,
c1cncc(-c2n[nH]c(CC3CCNC3)n2)c1 (centres undefined),inactive: 0.644% [at 64.5 µM],
NC(Cc1ccccc1)C(=O)N1CCC2(CC1)CN(C(=O)c1ccc(Cl)cc1)CCO2 (centres undefined),inactive: -0.789%,
Cn1cccc1CN1CCC2(CC1)C(=NC1CCCCC1)NC(=O)N2c1cc(F)cc(F)c1,inactive: -14.9%,
O=Cc1ccccc1-c1ccc(O)cc1,inactive: -36% [at 233 µM],
CN1CC(=O)N(C2CCCNC2)Cc2c(NCC(C)(C)C)ncnc21 (centres undefined),inactive: -16.5%,
COc1ccc(N2CC3CCC(C2)N3[S+](C)(=O)[O-])cc1,inactive: -12.2%,
O=C(c1ccccn1)N1CCn2c(nn(-c3ccc(Cl)cc3)c2=O)C1,inactive: -8.97%,

Structure (SMILES),"activity change, negative = inhibition",Potency
CC(C)NC(=O)NC1CC2(CCN(Cc3ccc(O)cc3)CC2)c2ccccc21 (centres undefined),inactive: -20%,
O=c1n(-c2ccc(C(F)(F)F)cc2)nc2n1CCN(Cc1ccc(C(F)(F)F)cc1)C2,inactive: -26%,
O=c1n(-c2ccc(Cl)cc2)nc2n1CCN([S+](=O)([O-])c1ccccc1)C2,inactive: -18.8%,
COc1cccc(S(=O)(=O)N2CCC3(C2)C(=O)Nc2ccccc23)c1 (centres undefined),inactive: -25.2%,
O=Cc1cccc(-c2cncc(C(=O)O)c2)c1,inactive: -16.9%,
COc1cccc(N2C(=O)NC(=NC3CCCC3)C23CCCN(CC2CC2)C3)c1 (centres undefined),inactive: -17.4%,
COc1cccc(NC(=O)Cn2c(=O)c3c(n2Cc2ccccc2)CN(Cc2ccccc2)CC3)c1,inactive: 3.59% [at 64.5 µM],
O=C1NC2(Cc3ccccc31)CN(C(=O)c1ccccc1F)C2,inactive: -17%,
O=C(N1CCCC1)N1CCCC(c2nnc3n2CCNC3)C1 (centres undefined),inactive: -4.99%,
CN1CC(=O)N(C2CCNC2)Cc2c(NCCCN3CCCCC3)ncnc21 (centres undefined),inactive: -9.7%,
Cc1ccc(CCN2CCCCC23Cc2ccccc2CN(C(=O)CCCC(=O)O)C3)cc1 (centres undefined),inactive: -13.9%,
CN1CC(=O)N(C2CCNC2)Cc2c1ncnc2N1CCC(N2CCCCC2)CC1 (centres undefined),inactive: -1.1%,
CC(=O)Nc1ccc(CN2CC3(C2)C(=O)Nc2ccccc23)cc1,inactive: -31.3%,
CNC(=O)[C@@H](C1CCCCC1)N1CCC[C@H]1C(=O)N1CCC1,,active: 15.8 µM
CCOCCNc1ncnc2c1CN(C1CCCNC1)C(=O)CN2C (centres undefined),inactive: -20.9%,
CCc1ccccc1CN1CCCC12Cc1ccccc1CNC2=O (centres undefined),inactive: -16.1%,
O=C1NCc2ccccc2CC12CCN(Cc1cccc(F)c1F)CC2,inactive: -12%,
CN1CC(=O)N(C2CCNCC2)Cc2c1ncnc2N1CCC(N2CCOCC2)CC1,inactive: -17.5%,
O=C(c1ccc2c(c1)OCO2)N1CCC2(CC1)C(=O)Nc1ccccc12,inactive: -8.81%,
COCc1nc(C2CC(N)C2)cc(N2CCC(c3[nH]ncc3C)CC2)n1 (centres undefined),inactive: -0.605% [at 64.5 µM],
NCc1ccc(-c2cccc(C(F)(F)F)c2)cc1,inactive: -28.6%,
COc1ccc(CN2CCC3(Cc4ccccc4CNC3=O)C2)c(O)c1 (centres undefined),inactive: -3.04%,
COc1cccc(N2C(=O)NC(=NC3CCCCC3)C23CCCN(Cc2cccnc2)C3)c1 (centres undefined),inactive: -17.1%,

Structure (SMILES),"activity change, negative = inhibition",Potency
COCCCNC(=O)c1cc(C2CC2)nc2onc(C3CCCN3)c12 (centres undefined),inactive: -19.3%,
CN(C)C(=O)c1ccnc(-c2nnc3ccc(N4CCCCC4)nn23)c1,inactive: -0.242% [at 64.5 µM],
NCC(=O)N1CCC2(CC1)CN(C(=O)Cc1cccc(Cl)c1)CCO2,inactive: 0.54%,
NCCC(=O)N1Cc2ccccc2CC2(CCCCN2CC2CCNCC2)C1 (centres undefined),inactive: -0.735%,
O=C(N1CCCCC1)N1CCCC(c2nnc3n2CCNC3)C1 (centres undefined),inactive: -7.37%,
Cc1ccc(CN2CC3(Cc4ccccc4NC3=O)C2)cc1,inactive: -7.17%,
COc1ccc(C(=O)N2Cc3ccccc3CC23CCCN(C(=O)CCCN)C3)cc1 (centres undefined),inactive: -9.85%,
O=C(C1CCCC1)N1Cc2ccccc2CC2(CCCN(CC3CCNC3)C2)C1 (centres undefined),inactive: -16.8%,
CN1CC(=O)N(C2CCNC2)Cc2c(NCC3CCCCC3)ncnc21 (centres undefined),inactive: -15%,
CC(C)NC(=O)N1CCC(c2nnc3n2CCNC3)CC1,inactive: 7.33%,
CN1CC(=O)N(C2CCCNCC2)Cc2c1ncnc2N1CCC(N2CCCCC2)CC1 (centres undefined),inactive: -3%,
CC(=O)NCCC(=O)N1Cc2ccccc2CC2(CCCCN2CC2CCNC2)C1 (centres undefined),inactive: -11.6%,
CNC(C)c1c(F)cccc1F (centres undefined),inactive: -14.6% [at 233 µM],
COc1ccc(NC2CN(C(=O)OC(C)(C)C)C2)cc1,,inactive
N[C@@H](Cc1c[nH]c2ccc(O)cc12)C(=O)O,inactive: 31%,
O=C1NCc2ccccc2CC12CCN(CCCc1ccccc1)CC2,inactive: -9.31%,
O=C(c1ccccc1)N1CCC2(CC1)C(=O)NCN2C(=O)Cc1ccccc1,inactive: -8.92%,
Cc1cc(C(=O)NCc2cccs2)c2c(C3CCNC3)noc2n1 (centres undefined),inactive: -11.9%,
Cc1n[nH]c(C)c1CN1CCC2(CC1)CCN(C1CCOCC1)CC2CO (centres undefined),inactive: 6.52% [at 64.5 µM],
O=C(CCC[C@H]1NC[C@@H]2CC1CN(Cc1ccccc1)C2)NCc1ccc(F)cc1,inactive: -6.95% [at 64.5 µM],
CN(CC1COCCO1)C(=O)c1coc(COc2ccc3c(c2)OCO3)n1 (centres undefined),inactive: 68.2% [at 64.5 µM],
CCCN1CCCC12Cc1ccccc1CN(C(=O)CCCC(=O)O)C2 (centres undefined),inactive: -24.9%,
O=C1NCc2ccccc2CC12CCN(Cc1ccc(F)cc1F)CC2,inactive: -15.9%,
